Data taken from PubChem BioAssay AID1159583 (ICCB-Longwood Screening Facility, Harvard Medical School, 2016).
“And” between values parts separate entries of the source, which are not always exact repeats. Equal values may be shown once. The list shows a part of the results. These are further read-outs of the screen, such as a control signal, another cell line or another target. No call is given for them. The list favours compounds with an active or inconclusive main result.

Assay: hypoxia reporter signal reduction in M. tuberculosis – fluorescence, absorbance growth readout, primary screen (AID 1159583)
Conditions: M. tuberculosis hypoxia-regulated fluorescent reporter, measured here: M. tuberculosis growth (absorbance), stronger effect = higher value, concentration not given here
Compound `COc1ccccc1C(CNC(=O)CN1C(=O)NC(C)(c2ccc3ccccc3c2)C1=O)N1CCCC1` (configuration not stated) has a growth inhibition of 75.7%. For `[O-][n+]1c2ccccc2[n+]([O-])c2cc(O)ccc21`, the growth inhibition was 8.96%. Compound `C=CCC(CC(=O)NC(CO)Cc1ccccc1)C(=O)NC(COC(=O)C(CC=C)Cc1ccc(F)cc1)Cc1ccccc1` (configuration not stated) has a growth inhibition of -10.3%. With `OCC#CCSc1nnc(-c2ccccc2Br)o1` the growth inhibition was 21.6%. Compound `CC(=O)c1nn(-c2ccc(Cl)cc2)cc1C(=O)c1ccc(C)cc1` has a growth inhibition of 1.5%. For `COC(=O)c1c(NC(=O)CN2C(=O)NC3(CCCCC3C)C2=O)sc2c1CCC2` (configuration not stated), the growth inhibition was 52.7%. `Cc1ccc(S(=O)(=O)Nc2c(C)n(C)n(-c3ccccc3)c2=O)cc1C(=O)OC(C)C(=O)c1ccccc1` (configuration not stated) gave a growth inhibition of 55.1%. `N#CC(=NNc1cccc(C(F)(F)F)c1)C(=O)c1csc(-c2cccnc2)n1` gave a growth inhibition of 26.4%. Compound `O=c1oc2ccccc2nc1/C=C(\O)c1ccccc1` has a growth inhibition of 26.8%. In the case of `C=C(C)[C@@H]1CC=C(CN2CCN(Cc3ccccc3)CC2)CC1`, the growth inhibition is reported as 22.8%. For `O=C(NN=Cc1ccc([N+](=O)[O-])o1)C(O)c1ccccc1` (configuration not stated), the growth inhibition was 52.5%. Compound `CC(=O)OCCNc1cc(N2CCN(C)CC2)c2noc3c2c1C(=O)c1ccccc1-3` has a growth inhibition of 2.38%. In the case of `O=c1c2c(-c3ccc([N+](=O)[O-])cc3)csc2nc2n1CCC2`, the growth inhibition is reported as 18.5%. `O=C(OCC#CCSc1nnc(-c2ccc(Br)cc2)o1)c1cccs1` showed a growth inhibition of 25.2%. With `CCN(C(=O)COC(=O)c1nc(Cl)ccc1Cl)c1c(N)n(Cc2ccccc2)c(=O)[nH]c1=O` the growth inhibition was 60.7%. `CN(CC(=O)Nc1ccccc1Br)C(=O)c1ccccc1Sc1ccccc1C#N` showed a growth inhibition of 68.2%. With `CC1OC(OC2C(Oc3cc(O)c4c(c3)OC(c3ccc(O)cc3)CC4=O)OC(CO)C(O)C2O)C(O)C(O)C1O` (configuration not stated) the growth inhibition was 45.6%. `CN1C(=O)/C(=C/c2ccc(N3CCCCCC3)o2)C(=O)NC1=S` showed a growth inhibition of 12.8%. With `CC(C)CC1CN=C(N)N1CC1CCCN1CC(C)N1CC(Cc2ccccc2)N(CCc2ccc(Cl)c(Cl)c2)C1=N` (configuration not stated) the growth inhibition was 48.9%. In the case of `O=C(CCCOc1ccc(Cl)cc1Cl)Nc1ccccc1C(=O)O`, the growth inhibition is reported as 52.5%. `CCC1=NNc2cccc3c(OC)ccc1c23` gave a growth inhibition of 20.7%. `COC1OC2O[C@@]3(C)CCC4C(C)CCC(C1C)[C@@]24OO3` (some centres not stated) showed a growth inhibition of -0.616%. In the case of `CCc1ccc(C(C)=NNC(=O)c2ccc(-n3cnnn3)cc2)cc1`, the growth inhibition is reported as 50.4%. Work on `CCN1/C(=C/c2ccc3cc(C)ccc3[n+]2CC)Sc2cc(C)c(C)cc21` yielded a growth inhibition of 8.86%. With `N#Cc1ccc(NCC(=O)N2CCN(S(=O)(=O)c3ccccc3)CC2)cc1` the growth inhibition was 81.4%. In the case of `CSCCC(NC(=O)c1ccccc1Br)C(=O)NNC(=O)c1ccncc1` (configuration not stated), the growth inhibition is reported as 58.8%. `CCn1c(SCC(=O)NC(=O)NCc2ccco2)nc2sc(C)c(C)c2c1=O` showed a growth inhibition of -6.53%. `O=C(Nc1cccc(O)c1)c1cccc(NC(=O)c2cccs2)c1` showed a growth inhibition of -5.34%. `O=C(OCCCOC(=O)c1ccc([N+](=O)[O-])o1)c1ccc([N+](=O)[O-])o1` gave a growth inhibition of 38.3%. Work on `Brc1ccc(OCc2nnc3n2CCC3)cc1` yielded a growth inhibition of 18.9%. With `CC(NC(=O)c1ccc(F)cc1)c1ccccc1` (configuration not stated) the growth inhibition was 33.8%. Work on `C=C1CSc2nc(=O)c3c4c(sc3n21)CCC4` yielded a growth inhibition of 19.9%. With `O=C(NN=Cc1ccc(OCc2ccccc2)cc1)c1ccncc1` the growth inhibition was 12.9%. In the case of `COc1ccc(C(=O)Nc2nc(C)c3cc4c(cc3n2)OCO4)cc1`, the growth inhibition is reported as -48.1%. Work on `Cn1c2ccccc2c(=O)c2ccc(NCCc3cccs3)cc21` yielded a growth inhibition of 24.3%. `CCC(C)NC(=O)CCC(=O)OC1O[C@H]2OC3(C)CC[C@H]4[C@H](C)CCC(C1C)C24OO3` (some centres not stated) gave a growth inhibition of 8.48%. In the case of `CC1CCN(C(=O)C2CCN(c3ncnc4c3nc3n4CCCCC3)CC2)CC1`, the growth inhibition is reported as 50.1%. `COc1ccc(C(=O)COC(=O)CNC(=O)c2ccc(C)s2)c(OC)c1` gave a growth inhibition of 73.9%. Work on `C(=C\c1nc(N2CCCC2)c2ccccc2n1)/c1ccccc1` yielded a growth inhibition of 11.5%. With `Cn1cc(/C=C/c2cc[n+](C)cc2)c2cc(Cl)ccc21` the growth inhibition was 2.27%. `O=C(/C=C/c1cn(CC(O)CN2CCCCC2)c2ccccc12)c1ccccc1` (configuration not stated) gave a growth inhibition of 53.2%. For `CCOC(=O)c1ccc(NC(=O)Cn2ncc(Cl)c(Cl)c2=O)cc1`, the growth inhibition was 18.5%. In the case of `COc1ccc(C)cc1-n1nnnc1SC(C)C(=O)NC1CCCC1` (configuration not stated), the growth inhibition is reported as 61.6%. Work on `CC(=O)OCC1=C(C(=O)O)N2C(=O)C(NC(=O)COc3ccc(F)cc3)C2SC1` (configuration not stated) yielded a growth inhibition of 22.6%. For `CN(C)c1ccc(S(=O)(=O)N2CCCCC2)cc1NC(=O)CCNC(=O)c1ccccc1Cl`, the growth inhibition was 58.4%. `Cc1c2ccncc2c(C)c2c1[nH]c1ccccc12` gave a growth inhibition of 15.6%. In the case of `CCCC1CC(C(=O)NC(C(C)Cl)C2OC(SC)C(O)C(O)C2O)N(C)C1` (configuration not stated), the growth inhibition is reported as 23% and 26.2% and 14.6%. Compound `Cc1cc2[nH]c3c(c[n+](C)c4ccccc34)c2cc1C` has a growth inhibition of 27.6%. With `CC(=O)NS(=O)(=O)c1ccc(Nc2ccc([N+](=O)[O-])c3nonc23)cc1` the growth inhibition was 4.49%. In the case of `O=C(Cn1nnc(-c2ccc(F)cc2)n1)Nc1cccc(S(=O)(=O)N2CCCC2)c1`, the growth inhibition is reported as 78.1%. `O=C(NCc1cccc(Cl)c1)c1cccc(S(=O)(=O)N2CCCCC2)c1` showed a growth inhibition of 55.1%. In the case of `CCN1C(=O)/C(=C2\C=Cc3ccccc3N2CC)SC1=S`, the growth inhibition is reported as 6.21%. For `O=C(c1ccc([N+](=O)[O-])o1)N1CCc2ccccc2C1`, the growth inhibition was 20.2%. With `O=C(O)CCN1C(=O)/C(=C\c2ccncc2)SC1=S` the growth inhibition was 23%. For `CCOC(=O)/C(C#N)=C/C=C1\C=Cc2ccccc2N1CC`, the growth inhibition was 12%. For `Cc1ccc(S(=O)(=O)N2CCN(C(=O)c3cc(S(=O)(=O)N4CCOCC4)c(Cl)cc3Cl)CC2)cc1`, the growth inhibition was 60.2%. Compound `CCOc1ccc2oc(C(=O)OCC(=O)N3C(C)CCCC3C)c(C)c2c1` (configuration not stated) has a growth inhibition of 53.7%. `O=C(Nc1cccc(Cl)c1)c1cc(N=Nc2ccc([N+](=O)[O-])cc2Cl)ccc1O` showed a growth inhibition of 6.64%. Work on `COc1cc(/C=C/c2ccc3c([N+](=O)[O-])cccc3n2)ccc1OCC(=O)O` yielded a growth inhibition of 47.2%. In the case of `CCCN(CC(=O)Nc1ccccc1C)C(=O)CCl`, the growth inhibition is reported as 21.4%. `Cc1ccccc1NC(=O)COC(=O)c1cc(S(=O)(=O)N2CCOCC2)ccc1C` gave a growth inhibition of 70.6%. Compound `CC(=O)c1cccc(NC(=O)CCCOc2ccc(C)cc2)c1` has a growth inhibition of -1.34%. Compound `CCOc1ccccc1-c1c2cc(O)c(=O)cc-2oc2cc(O)c(O)cc12` has a growth inhibition of -41.8%. Compound `Cc1oc(-c2cccs2)nc1CSCC(=O)N1CCC2(CC1)OCCO2` has a growth inhibition of 53.2%. With `CC(C)CCn1c(=O)c2ccccc2n2c(CCl)nnc12` the growth inhibition was 17.3%. With `Cc1ccccc1NC(=O)CSc1ccc(-c2ccccn2)nn1` the growth inhibition was 17.3%. `CC(C)(C)C(=O)Nc1ccc2c(c1)OCCOCCOc1cc(NC(=O)C(C)(C)C)ccc1OCCOCCO2` gave a growth inhibition of 21.7%. Compound `CN(C)CCCN(C(=O)c1ccc2c(c1)CCCC2)c1nc2ccc(Cl)cc2s1` has a growth inhibition of 25.2%. `CN(C)CCOc1ccc(-c2c(-c3ccccc3)sc3ccccc23)cc1` gave a growth inhibition of 30.1%. `CC1CCC2[C@@H](C)C(=O)OC3O[C@]4(C)CCC1C32OO4` (some centres not stated) showed a growth inhibition of 10.7%. `CCc1nnc(NS(=O)(=O)c2ccc(Nc3ccc([N+](=O)[O-])c4nonc34)cc2)s1` gave a growth inhibition of 7.66%. In the case of `CCn1nc(C(=O)Nc2cccc(S(=O)(=O)N3CCCC3)c2)c2ccccc2c1=O`, the growth inhibition is reported as 53.2%. `CC(=O)c1ccc(NC(=O)c2ccc([N+](=O)[O-])o2)cc1` gave a growth inhibition of 43.3%. `COc1ccc(NS(=O)(=O)c2ccc(N3CCOCC3)c(N)c2)cc1` gave a growth inhibition of 50.8%. With `COc1ccc(C2=CSC(N=Cc3ccc(F)cc3)=NN2)cc1` the growth inhibition was 60.2%. Work on `CCOP(=O)(Oc1ccccc1)c1c([N+](=O)[O-])cc(C(F)(F)F)cc1[N+](=O)[O-]` (configuration not stated) yielded a growth inhibition of 24.2%. Work on `COc1ccc(Cl)cc1NC(=O)C(C)OC(=O)Cn1cc(C(F)(F)F)ccc1=O` (configuration not stated) yielded a growth inhibition of 62.1%. With `Cc1nc(SCC(=O)NCc2ccc3c(c2)OCO3)nc(C)c1C` the growth inhibition was 53.7%. In the case of `CCOC(=O)C1=C(C)N=c2sc(=Cc3cccc([N+](=O)[O-])c3O)c(=O)n2C1c1ccc(OC)cc1OC` (configuration not stated), the growth inhibition is reported as 3.49%. In the case of `Cn1c(COc2ccc(Cl)cc2)nnc1SCC(=O)NC1CC1`, the growth inhibition is reported as 74.3%. Compound `COc1cc(C(=O)Nc2cc(S(=O)(=O)N3CCOCC3)ccc2N2CCOCC2)ccc1OC(F)F` has a growth inhibition of 52.7%. Work on `Cc1ccc(NC(=O)c2cc(S(=O)(=O)N3CCCCC3)ccc2N2CCOCC2)cc1S(=O)(=O)N(C)C` yielded a growth inhibition of 61.6%. In the case of `CN1CCS/C1=C\C=C1/SC(=S)N(CC(=O)O)C1=O`, the growth inhibition is reported as 8.01%. With `CC(=O)N1CCc2c(sc(NC(=O)c3ccc([N+](=O)[O-])o3)c2C#N)C1` the growth inhibition was 14.2%. For `CCN(CC)c1ccc(/C=C2\C(=O)NC(=S)N(c3ccc(OC)cc3OC)C2=O)o1`, the growth inhibition was 5.48%. `CCN(CC)c1ccc(C=C2C(=O)N(C)C(=S)N(C)C2=O)o1` gave a growth inhibition of 7.89%. `Fc1cccc(CON=Cc2c(-c3ccccc3)nc3ccc(Cl)cn23)c1` showed a growth inhibition of 24.1%. For `Cc1c(C(=O)N2CCN(S(=O)(=O)c3ccc(F)cc3)CC2)oc2ccccc12`, the growth inhibition was 20.1%. `CN(C)CCOc1nc(-c2ccccc2)nc2c1oc1ccccc12` gave a growth inhibition of 14.6%. With `CCOC(=O)N1CCN(C(=O)CSc2nc(-c3cccc(C)c3)ns2)CC1` the growth inhibition was 27%. With `O=C(OCC(=O)C12CC3CC(CC(C3)C1)C2)c1ccc(CO)cc1` the growth inhibition was 55.5%. `c1ccc(CSc2nnc(-c3cccnc3)o2)cc1` gave a growth inhibition of 25.8%. For `Brc1cc(Br)c2nc3c(cc2c1)CCC3`, the growth inhibition was 33.8%. With `NS(=O)(=O)c1cccc(NC(=O)COC(=O)c2ccc(S(=O)(=O)N3CCOCC3)cc2)c1` the growth inhibition was 56.5%. `O=C(/C=C/c1ccc(S(=O)(=O)N2CCOCC2)cc1)NCCc1ccc(C(F)(F)F)cc1` gave a growth inhibition of 59.8%. Work on `Cc1ccc(N(CCC#N)C(=O)CCl)cc1C` yielded a growth inhibition of 22.6%. Compound `Cc1nnc(NC(=O)CSc2ccc(-c3ccccn3)nn2)s1` has a growth inhibition of -7.39%. Compound `O=C(COC(=O)c1ccccc1NCCO)NCC1CCCCC1` has a growth inhibition of 64.9%. Compound `CC=CC(=O)Nc1cccc(C2=NOC3(C2)CC(C(N)=O)N(C(=O)c2cc([N+](=O)[O-])cc([N+](=O)[O-])c2)C3)c1` (configuration not stated) has a growth inhibition of 20.2%. Work on `O=C(Nc1ccc(S(=O)(=O)N2CCOCC2)cc1)c1ccc([N+](=O)[O-])s1` yielded a growth inhibition of 16.7%. Compound `Cc1ccc(C)c(NC(=O)CN2C(=O)NC(C)(c3ccc4c(c3)OCCO4)C2=O)c1` (configuration not stated) has a growth inhibition of 73.4%. In the case of `Cn1nc(C(=O)OCC(=O)NCc2ccc(Cl)cc2)c2ccccc2c1=O`, the growth inhibition is reported as 68.7%.
